# Out of some 310,000 compounds screened, about 14,000 (4.5%) showed an effect of 50% or more. Effects have a minus sign here. This is one part of the list.
# Biological target: human ether-à-go-go-related gene (hERG) potassium channel (human, UniProt Q12809)
# Assay: primary screen, population patch clamp on CHO cells stably expressing hERG
# 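Also: peak tail current of the secondary pulse compared with the same well before compound.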
# Sequence of human ether-à-go-go-related gene (hERG) potassium channel (Q12809 whole entry, looked up): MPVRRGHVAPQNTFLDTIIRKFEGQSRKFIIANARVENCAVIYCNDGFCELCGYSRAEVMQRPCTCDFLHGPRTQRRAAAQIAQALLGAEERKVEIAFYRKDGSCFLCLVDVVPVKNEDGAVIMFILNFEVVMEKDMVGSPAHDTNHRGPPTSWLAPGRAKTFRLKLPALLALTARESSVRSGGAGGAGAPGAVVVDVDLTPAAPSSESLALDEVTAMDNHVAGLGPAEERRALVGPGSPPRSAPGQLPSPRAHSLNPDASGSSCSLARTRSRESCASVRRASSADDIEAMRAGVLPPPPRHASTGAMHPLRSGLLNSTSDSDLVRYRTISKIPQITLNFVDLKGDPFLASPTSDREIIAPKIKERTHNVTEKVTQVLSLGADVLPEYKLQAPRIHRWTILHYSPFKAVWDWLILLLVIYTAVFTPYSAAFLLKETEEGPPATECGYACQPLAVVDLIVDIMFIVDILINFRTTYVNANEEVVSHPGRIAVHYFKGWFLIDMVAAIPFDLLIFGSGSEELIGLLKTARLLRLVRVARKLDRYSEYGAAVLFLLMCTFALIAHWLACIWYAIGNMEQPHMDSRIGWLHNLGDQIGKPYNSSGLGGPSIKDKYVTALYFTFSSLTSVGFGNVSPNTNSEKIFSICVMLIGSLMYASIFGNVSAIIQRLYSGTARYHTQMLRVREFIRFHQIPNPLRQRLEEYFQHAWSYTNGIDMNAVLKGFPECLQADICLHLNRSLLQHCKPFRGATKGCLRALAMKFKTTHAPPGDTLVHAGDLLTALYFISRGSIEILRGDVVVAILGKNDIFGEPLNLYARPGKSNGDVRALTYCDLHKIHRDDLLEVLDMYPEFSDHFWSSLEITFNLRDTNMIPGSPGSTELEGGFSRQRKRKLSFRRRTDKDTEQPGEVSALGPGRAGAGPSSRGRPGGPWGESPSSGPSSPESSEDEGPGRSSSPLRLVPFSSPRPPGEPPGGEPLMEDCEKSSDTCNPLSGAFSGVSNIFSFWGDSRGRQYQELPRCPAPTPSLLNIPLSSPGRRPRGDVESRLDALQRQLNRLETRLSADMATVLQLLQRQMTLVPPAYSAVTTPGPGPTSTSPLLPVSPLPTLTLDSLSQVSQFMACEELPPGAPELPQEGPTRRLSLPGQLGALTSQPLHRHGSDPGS
row,SMILES,"hERG current change (%, negative = inhibition) at 10uM [%]"
1,COC(=O)c1ccccc1NC(=O)c1cc2ncc(Br)cn2n1,6.87
2,Cc1cccc2cc(/C=N/Nc3ccc(C(=O)O)cc3)c(Cl)nc12,6.62
3,CC(C)Cn1c(=O)c2c(nc3n2CC(C)CN3Cc2ccccc2)n(C)c1=O (centres unmarked),-83.3
4,COc1ccc(-c2c(-c3cc(OC)cc(OC)c3)n(C)c3ccc(-c4ccc(S(N)(=O)=O)cc4)cc23)cc1,14.8
5,Cc1ccc(Nc2nc3ccccc3[nH]2)nc1,-9.82
6,COc1ccccc1Nc1nc(N)nc(CSC(=S)N2CCCCC2)n1,0.598
7,CCOC(=O)N1CCC(NS(=O)(=O)c2ccc3c(c2)CCN3C(C)=O)CC1,-0.517
8,COc1ccc(NS(=O)(=O)c2ccc3c(c2)NC(=O)CCS3)cc1Cl,3.76
9,CN(C)C(Cc1ccc(Cl)cc1)C(=O)c1ccccc1 (centres unmarked),-4.01
10,COc1ccc(C(=O)NCCNc2ccccc2[N+](=O)[O-])cc1,-8.54
11,CCCCC(=Nc1ccccc1OC)C1=C(O)CC(c2ccccc2)CC1=O (centres unmarked),3.11
12,CCCc1cc(C(=O)Nc2ccc(C(=O)c3ccc(C)cc3)cc2)n(C)n1,2.4
13,Cn1c(CCN2CCCCC2)nc2cc(NC(=O)COc3ccc([N+](=O)[O-])cc3)ccc21,-63.1
14,Cc1cc(SCC(=O)NC2(C#N)CCCCC2)nc2c(C)cccc12,9.57
15,Cc1c(NC(=O)CSc2nnnn2C)c(=O)n(-c2ccccc2)n1C,0.477
16,C=CCNC(=O)CN1CCC(O)(c2ccccc2)CC1,4.87
17,CCCn1c(SCC(=O)N2CCN(C(C)=O)CC2)nc2sc3c(c2c1=O)CCC3,-40
18,Cc1cccc(Sc2c([N+](=O)[O-])ncn2C)c1,13.4
19,Cc1nnc(NC(=O)c2ccncc2)s1,12.7

row,SMILES,"hERG current change (%, negative = inhibition) at 10uM [%]"
1,COC(=O)c1ccc2c(=O)sc(N3CCC(C(N)=O)CC3)nc2c1,0.731
2,O=C(NC1CCCCC1)c1cc(S(=O)(=O)N2CCCCC2)ccc1N1CCOCC1,-18.2
3,O=C(COC(=O)/C=C/c1cccc(F)c1)Nc1ncccn1,-9.87
4,O=C1CCCN1c1ccc(S(=O)(=O)Nc2ccc3c(c2)OCCO3)cc1,9.93
5,COc1ccc(CN2CC(=O)N3[C@H]4c5ccccc5OC[C@@H]4[C@H](c4ccccc4)[C@]3(C)C2=O)cc1,15.3
6,O=C(Cc1csc(N2CCOCC2)n1)N/N=C/c1ccccc1C(=O)O,21.4
7,CCN(CC)C(=O)COc1ccc(/C(C)=N/Nc2ncc(Cl)cc2Cl)cc1,-19.6
8,CCNC(=O)C12CCC(C)(C(=O)C1Br)C2(C)C (centres unmarked),14.2
9,Cc1ccc(NC(=O)c2nc(C)n(-c3ccc([N+](=O)[O-])cc3)n2)cc1,-32.2
10,OCC(O)C1OC(Nc2ccc(Cl)cc2)C(O)C1O (centres unmarked),0.0372
11,COc1ccc(NC(=O)c2cc([N+](=O)[O-])ccc2NC(=O)CNC2CCCCC2C)c(OC)c1 (centres unmarked),-76.3
12,COCCN1C(=O)c2oc3cc(C)c(C)cc3c(=O)c2C1c1cccc(O)c1 (centres unmarked),-15
13,C(=C1/CCCC2=C1Nc1ncnn1C2c1ccccc1)/c1ccccc1 (centres unmarked),-12.1
14,COc1ccc(-n2c(O)c(/C=C3\C=Nc4ccc(Br)cc43)c(=O)[nH]c2=O)c(OC)c1,10.8
15,Cc1ccc2c(c1)C(c1ccccc1)C(=O)O2 (centres unmarked),3.23
16,Cc1cccc(N2C(=O)CS/C2=N\NC(=O)c2ccc(Cl)cc2)c1C,1.76
17,COc1ccc(C(=O)N2CCCC(c3ccccc3)=N2)cc1,-0.229
18,C/C=C/c1ccc2c(c1)OCO2,20.8
19,CC12CCC(=O)N1C(C(=O)Nc1nc3c(F)cc(F)cc3s1)CS2 (centres unmarked),-6.06

row,SMILES,"hERG current change (%, negative = inhibition) at 10uM [%]"
1,COC(=O)c1ccc(NC(=O)C(=O)c2cccn2C)cc1,10.6
2,CS(=O)(=O)Nc1ccccc1C(=O)OCC(=O)NC1CC1,8.92
3,CCOC(=O)N(CC)c1ccc(C(O)(C(=O)OC)C(F)(F)F)cc1 (centres unmarked),-1.03
4,CCOc1ccccc1OCCOc1ccccc1CC,10.1
5,Cc1c(C(=O)N(C)CCn2ccnc2C)oc2c(F)cccc12,-35
6,Cc1ccc(C)c(Cn2c(=O)n(-c3ccc(CC(=O)NCc4ccco4)cc3)c(=O)c3sccc32)c1,-12.9
7,O=C(c1ccncc1)c1ccc(NC(=O)c2cccs2)cc1,-17
8,c1ccc(-c2ccc(C3CCCN3)cc2)cc1 (centres unmarked),-9.81
9,Cc1noc(C)c1C(=O)N1CCCC(C(=O)c2cccc(C(F)(F)F)c2)C1 (centres unmarked),-22.6
10,COc1ccc(OC)c(NC(=O)CSc2nnc(C3CCCCC3)n2-c2ccccc2)c1,-18.5
11,COCCn1c(=NC(=O)CSCC(=O)N2CCOCC2)sc2cc(C)ccc21,-14.8
12,Cc1cc(C)c2c(c1)/C(=N\N=c1\sc3ccccc3n1C)C(=O)N2,12.3
13,CCOc1ccc(CNC(=O)CCc2cn(C)c3ccccc23)cc1OC,9.22
14,Cc1ccc2c(C)c(C(=O)N3CCN(C4CCS(=O)(=O)C4)CC3)oc2c1C (centres unmarked),-4.49
15,Cc1ccc(C)c(NC(=S)NNC(=S)Nc2ccc(C(C)C)cc2)c1,27.9
16,Cc1cccc2cc3c(N)c(C(=O)N4CCc5ccccc54)sc3nc12,13.5
17,Cc1ccc(-c2nnn(Cc3nc4ccccc4s3)n2)cc1,-4.73
18,COC(=O)C1=CN(Cc2ccc(OC)c(OC)c2)C=C(C(=O)OC)C1c1ccccc1F,7.61

# From paper PMC4336329 (PLoS ONE, 2015)
